Reference: the supplement of paper PMC10681739
± gives the standard deviation of the averaged measurements. In all, about 4,000 sequences were measured (“arbitrary fluorescence units”: median about 830, highest 2% from about 6,500 on). This part holds few or none of the hits.
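Note: Full-length recombinant human RUNX1 bound to double-stranded DNA microarray spots, detected with an Alexa488-labelled secondary antibody after the anti-RUNX1 primary, read as scanned spot fluorescence.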

The sequences below were run against RUNX1 (UniProt Q01196) (assay: RUNX1 binding intensity (PBM fluorescence), RUNX1 alone (arbitrary fluorescence units); higher = stronger binding). Conditions: RUNX1 concentration 2 nM; ETS1 concentration 0 nM.
Sequence of UniProt Q01196 (Q01196 whole entry): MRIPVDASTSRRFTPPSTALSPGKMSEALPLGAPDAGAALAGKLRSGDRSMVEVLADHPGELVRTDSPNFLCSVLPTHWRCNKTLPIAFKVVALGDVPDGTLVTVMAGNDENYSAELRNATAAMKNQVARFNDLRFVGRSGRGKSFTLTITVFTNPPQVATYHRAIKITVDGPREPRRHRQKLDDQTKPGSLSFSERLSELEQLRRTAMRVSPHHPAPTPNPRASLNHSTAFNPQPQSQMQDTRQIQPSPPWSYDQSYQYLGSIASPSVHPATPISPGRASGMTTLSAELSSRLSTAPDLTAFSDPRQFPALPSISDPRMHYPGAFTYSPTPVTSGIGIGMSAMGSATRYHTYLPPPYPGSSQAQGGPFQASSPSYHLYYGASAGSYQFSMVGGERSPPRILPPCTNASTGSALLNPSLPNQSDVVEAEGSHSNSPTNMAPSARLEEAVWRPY
Description: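 gcPBM on 36-bp genomic-derived probes (partner site mutated) containing one RUNX1 site and no ETS1 site. Recombinant human RUNX1 (2 nM) was incubated alone or with ETS1 (25 nM) and detected by anti-RUNX1 antibody fluorescence. Values are medians over 4 replicate spots (not normalised). The probes sit in constant array flanks that are not printed.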
Work on GACGGCCGCTTGTGGCGCGGGACTTGCTGCCTGGCC yielded an RUNX1 binding intensity of 762.
For CTGTCCGCTACATACGGGACCTGCGGGACCGCCGAT, the RUNX1 binding intensity was 860.
CCCGGACCGCAGGCCGGACTACAATTCCCGTCGGCC was tested, and the RUNX1 binding intensity was 947.
TGTTACCACTGTTAGACTAGAGAGCATGCTGTTGTT showed an RUNX1 binding intensity of 841.
GCCCGTAAGCGCGACGCTGGAGCTGCGGGGTTACCA showed an RUNX1 binding intensity of 818.
Work on CTCCCGTACGCTAACGTCTGGCAAACCACATTGCCC yielded an RUNX1 binding intensity of 1010.
Work on TATCAATAAGGACGTACAATCACCAAACCACAAGCC yielded an RUNX1 binding intensity of 1120.
With GAGCCGAAAGTGAAGGAGGGCTTGTGGGAGATGGAG the RUNX1 binding intensity was 769.
In the case of CCAGAGCACCTCCTACACGCACCACAACCTGAAAAC, the RUNX1 binding intensity is reported as 1470.
Work on CCAGAGCAGCATGTTCTGCTGTGGCTAGATAAGCCC yielded an RUNX1 binding intensity of 665.
Work on TCCGTAAATAGATAATATCTAGTTAAACCTCAAAAT yielded an RUNX1 binding intensity of 840.
Sequence GTGGCGGGGCGGAGGTTCACATGTGTGGTATGTAGA has an RUNX1 binding intensity of 841 ± 28.
AGGCTTGTGGCTAGACCAGGGTCTTGCTGCTGAAGA gave an RUNX1 binding intensity of 708.
In the case of TCGCTCTGATAACCGCATCCCGGTTTTCGGGACGAC, the RUNX1 binding intensity is reported as 3400.
Sequence TCCACAGCAAATCCCCTGGTCTGTGGCGCCTCTGAT has an RUNX1 binding intensity of 772.
In the case of GCGGCGCTGCGGGCCGAGGTGGGGCCGGGAATGTCA, the RUNX1 binding intensity is reported as 744.
Work on CTGGGGACGAAGCCTGAGGTGTGTGGTTTTGTTAAC yielded an RUNX1 binding intensity of 904.
TGGTAACCCCGCAGCTCCAGCGTCGCGCTTACGGGC gave an RUNX1 binding intensity of 716.
GACAGCAAGTGACCTCAATTTCCCCGGCCACAGAAA was tested, and the RUNX1 binding intensity was 834.
In the case of CCTTAACGTTAAAACCTCAAGCTTCCAGAGCATGTC, the RUNX1 binding intensity is reported as 935.
For GTCCCCCTTACGGCTGCAGGTTGAGGTTTGGAACCT, the RUNX1 binding intensity was 706.
CCTGCTCTGGGGCGGTTAGCAACTTGCTGCCCTGGC was tested, and the RUNX1 binding intensity was 757.
AACCTCTAAGGAATCGGTGTGTGCACCCACATGCTG was tested, and the RUNX1 binding intensity was 757.
ACGCAAACCACACCAGCCACGGACAGGCAGCAAGAG was tested, and the RUNX1 binding intensity was 1200.
Work on ACATGGTCTCGCTTGCTGTTTACACCACAGAAAGCT yielded an RUNX1 binding intensity of 895.
CTGCGGTAAAAATAGGCAGTGGGGGAGGGAGTTCAC gave an RUNX1 binding intensity of 856.
CGAAAAACCTCAGGGGAGCCATGGGGGCAGCAAGGG showed an RUNX1 binding intensity of 792.
TGGGCAAGATCTCCTGGAAGTGGTTAAAAAAAATTA gave an RUNX1 binding intensity of 787.
In the case of CTCCGCGCAGCCGCAGAGACCCTTGGGAATTGTGGA, the RUNX1 binding intensity is reported as 725.
GCACTCGGCTGTTGGCCGTAGTTGTGGTTATAGTTG was tested, and the RUNX1 binding intensity was 921.
Work on TTGCTGTCATCGTGTTCTCCCAGCTAAGCCACAGGA yielded an RUNX1 binding intensity of 803.
CCACTGCTTCGGCCTTCTCTGCTGGCTGCGGGGAGC showed an RUNX1 binding intensity of 850.
Work on TATCTCCTCCTGCAGGTCTGTTCTTTACCGCCTGAA yielded an RUNX1 binding intensity of 949.
GGCCGAGGACCGCAGAGCCCCGTAAGCCTAGCCCCA gave an RUNX1 binding intensity of 1050.
Sequence ACGTTTCGGGGTTGCCGGGCCAGCGGTTTCGGGCGC has an RUNX1 binding intensity of 836.
GACAGCCGCATCTGCTGAGTCATAAGGAGGTGGGCC gave an RUNX1 binding intensity of 733.
TGTCGTACATCTCCGCCTTGTGGGCACAATCTGATT gave an RUNX1 binding intensity of 834.
With GCCAACCACAACATGAGGAATACATGTCCTCTTCAG the RUNX1 binding intensity was 1800.
Work on GGACGCTTCAGGTGGAAGGGAGCTGTTGCGGGGCTT yielded an RUNX1 binding intensity of 661.
TGTCATCCCGGCAACTGATAACAAGACCGCGAGTCA gave an RUNX1 binding intensity of 827.
In the case of GGCCCGGCCGTAAGAAGCCACCTCCCCCGCACGCGT, the RUNX1 binding intensity is reported as 796.
TGTAGTCAGGTGGTTAGGCAGGTTGTTTCTCACGGC was tested, and the RUNX1 binding intensity was 819.
CTCCGTGCCACCACAGCCACTTGCTGCCTTGAAAAC gave an RUNX1 binding intensity of 1170.
For TAGACCAGTGTGGTCAGCCGCCCCTGCCTAAGCTGC, the RUNX1 binding intensity was 987.
CAGCCAGCCAGGGAGCAGGGGCTGCGGGGCTGACAG was tested, and the RUNX1 binding intensity was 737.
With CAGAGCAGAGAGGAGGTGGTGGTGGCCACAGTCCCA the RUNX1 binding intensity was 735.
CACCTCCTATCGCTACATAACAAATTACCACAGACT showed an RUNX1 binding intensity of 2240.
With TGCCAAGAGTTCCCCGCGGACCCCGCAACAGCTCCA the RUNX1 binding intensity was 890.
ATGACTTAGCAACCTCCTGACAACCACTACATTGTC gave an RUNX1 binding intensity of 932.
For TCCAGCGCCGCAGGGCCAACGAGAGCGCTTCAGGCC, the RUNX1 binding intensity was 624.
In the case of GTCGTCAGCGTCGTCCTGTCAGCGGTCGGCAGAGCC, the RUNX1 binding intensity is reported as 807.
ACCTGAGCAGGCAGTAGCTGAGGTCGCGGTGCAGCA showed an RUNX1 binding intensity of 624.
With TAGCCTTGTGTGGGAAGCAAATCGTGTCTCAGAGGG the RUNX1 binding intensity was 753 ± 76.
CGCCGCGGTAGCAGGGCGCAGGCTGGAACCTTTCTT was tested, and the RUNX1 binding intensity was 724.
Work on GTTGGTCTCCTCTAGACTCTCGTGGCCACACCGTTC yielded an RUNX1 binding intensity of 872.
GCACAGCGGTCTATTTCACCTCAGCAAGATTCCCCC gave an RUNX1 binding intensity of 874.
For ACCTGAAGGGCGGGGGCGTGGCGAGGTACCGCAGAC, the RUNX1 binding intensity was 1140.
GCGGAGCCCGACGGTAAAGACCCCGCAGCCCTGCTC showed an RUNX1 binding intensity of 779.
Sequence CACCTTTGTTGTGGTTTGTAAACGGAGACAAAAACA has an RUNX1 binding intensity of 1460.
AAACTTGCGGTGGAGGAGAGCTGAGCACTGCCTATG gave an RUNX1 binding intensity of 1260.
Work on AAGTGGTTGCATATAGGGCGAATCGGCTCCCTGCTA yielded an RUNX1 binding intensity of 748.
For ATGGCGCCGACCGCAGCCACTTGCGTGATCCGCAGG, the RUNX1 binding intensity was 3730.
TCCTCCGGGTGCCCAGCGGCTGCTGAGATACCGCGG showed an RUNX1 binding intensity of 724.
